From article PMC10668032 come the findings set out here.

The list shows a part of the results. At the low end of the ranking the order means little.

In this experiment the target is SIX1 homeodomain (reference allele) (UniProt Q15475). Nature of the experiment: universal protein binding microarray. Particulars: Universal all-10-mer PBM (8x60K, AMADID 030236), 300 nM GST-tagged protein, Alexa Fluor 488 anti-GST; buffer, salt, pH and temperature not stated; high values mean tight binding; most listed sequences are background and not binding sites; double strand, one strand shown.
As for CATCTTTC, the binding signal was -0.126 E-score.

Regarding TCTCATCA, the binding signal turned out to be 0.0739 E-score.

On to GTACATTA, for which the binding signal was 0.00899 E-score.

For the sequence ATTCATTA, the binding signal was 0.0361 E-score.

For the sequence ACGATAGG, the binding signal amounted to 0.269 E-score.

ATGGAACA: the binding signal is -0.155 E-score.

For the sequence ACGCTATG, the binding signal is -0.0891 E-score.

As for GTCTGATA, the binding signal came out at 0.294 E-score.

In the case of AGATATGG, the binding signal was 0.335 E-score.

As to GCCTTCAC, the binding signal was -0.205 E-score.

Turning to AGACGTCC, the binding signal is -0.0986 E-score.

As to CCGGCTCA, the binding signal was found to be 0.256 E-score.

Consider GCTGAAGA, for which the binding signal is -0.189 E-score.

As for AAATTCCC, the binding signal is -0.239 E-score.

In the case of ATTCAGGC, the binding signal is 0.0935 E-score.

As for CATTGGGA, the binding signal is -0.15 E-score.

ACAAAGGG: the binding signal is -0.157 E-score.

On to ACACCGGA, for which the binding signal was 0.364 E-score.

For the sequence AGCGCGAT, the binding signal stood at 0.166 E-score.

Take GACCAGGA: the binding signal worked out at 0.107 E-score.

Consider TACTTGGA, for which the binding signal is 0.091 E-score.

Regarding ACCGACCT, the binding signal is -0.00057 E-score.

In the case of AGGTGATC, the binding signal turned out to be 0.359 E-score.

As to CGAGTGCA, the binding signal was -0.11 E-score.

On to CAACATGC, for which the binding signal was -0.177 E-score.

As for AAGATGCC, the binding signal was found to be 0.0158 E-score.

For AAAAGACC, the binding signal is -0.327 E-score.

With ACTTGCAT, the binding signal is -0.182 E-score.

Turning to CTGCTCAA, the binding signal was -0.176 E-score.

With CATATAAA, the binding signal stood at 0.0492 E-score.

In the case of GCGATCGC, the binding signal stood at 0.378 E-score.

For AGAGTGGG, the binding signal was -0.0427 E-score.

Take AGTTCACC: the binding signal was -0.0047 E-score.

Take TCTGTCAA: the binding signal was -0.111 E-score.

As to GGACGGCA, the binding signal was -0.145 E-score.

In the case of GCATCCAA, the binding signal is -0.0517 E-score.

Regarding GGACCGAA, the binding signal is -0.291 E-score.

On to CTTTCTTA, for which the binding signal was -0.157 E-score.

As to ACTAAACT, the binding signal was -0.23 E-score.

With GACCACTC, the binding signal was -0.0612 E-score.

Consider GTCTGTTA, for which the binding signal was -0.0158 E-score.

GGGTTGTA: the binding signal was determined as 0.162 E-score.

Take GTCGCGTA: the binding signal is -0.056 E-score.

Turning to AAAATTCG, the binding signal was -0.139 E-score.

For the sequence CACCCTCG, the binding signal was found to be 0.0954 E-score.

Consider AACTCAGT, for which the binding signal is -0.191 E-score.

Turning to AATCTAAG, the binding signal is -0.0701 E-score.

On to CAAATGAA, for which the binding signal is -0.146 E-score.

Regarding CGACGTTC, the binding signal is -0.238 E-score.

On to GTTGAAGA, for which the binding signal is -0.0562 E-score.

ACCTCTCG: the binding signal is -0.0261 E-score.

For the sequence TGTAAGAA, the binding signal was 0.029 E-score.

In the case of CCGGGCGC, the binding signal is -0.134 E-score.

In the case of AATGCCAC, the binding signal is -0.137 E-score.

For the sequence AGGTCCAA, the binding signal is -0.0829 E-score.

TACAATGA: the binding signal worked out at 0.139 E-score.

Regarding AGACATAT, the binding signal stood at 0.243 E-score.

As for TCGTGTAA, the binding signal amounted to 0.083 E-score.

As to TAATCCGA, the binding signal came to 0.297 E-score.

CAGCTACA: the binding signal is -0.0346 E-score.

With CTCAGATC, the binding signal amounted to 0.27 E-score.

For GGTTGCAC, the binding signal is -0.0339 E-score.

On to ACCGAACA, for which the binding signal is 0.047 E-score.

CAGTAGTC: the binding signal was -0.109 E-score.

For AATAAAGC, the binding signal was -0.177 E-score.

For GCTGTTAA, the binding signal is -0.196 E-score.

Consider CAGTGACG, for which the binding signal is -0.122 E-score.

For the sequence ACTGACTG, the binding signal is -0.161 E-score.

Consider CTATATCA, for which the binding signal was 0.412 E-score.

On to ATCAACAT, for which the binding signal came to 0.225 E-score.

AACATGCC: the binding signal is -0.223 E-score.

For the sequence ACAGGCCC, the binding signal was -0.201 E-score.

In the case of ACCTACCA, the binding signal was -0.121 E-score.

Consider CGGGTTTC, for which the binding signal came out at 0.132 E-score.

With GAAACTGA, the binding signal was -0.254 E-score.

Consider GCCTCAAC, for which the binding signal was -0.0586 E-score.

For the sequence AGGAACAT, the binding signal is -0.155 E-score.

Regarding CTAGTTTA, the binding signal was -0.246 E-score.

For GTTGATGA, the binding signal was -0.0362 E-score.

Turning to AAATGTGT, the binding signal was -0.127 E-score.

With ACTCCACG, the binding signal is -0.151 E-score.

For the sequence ACGCCACG, the binding signal was -0.0993 E-score.

On to GCGCCGCC, for which the binding signal is -0.0101 E-score.

For GTCGATAA, the binding signal was -0.19 E-score.

For the sequence GGTGCACA, the binding signal was -0.106 E-score.

As to CAGCAGAC, the binding signal is -0.26 E-score.

CGGCGAAC: the binding signal worked out at 0.129 E-score.

For CAGAACGC, the binding signal is -0.231 E-score.

With AAGTACCG, the binding signal was -0.151 E-score.

In the case of GCCTGTAC, the binding signal is -0.257 E-score.

Turning to CGCAACTC, the binding signal was -0.201 E-score.

Consider ACGGACAA, for which the binding signal was -0.0291 E-score.

Regarding AGCGCCCG, the binding signal is -0.16 E-score.

For TCCCGAGA, the binding signal came out at 0.0986 E-score.

Consider ATAGCATG, for which the binding signal came out at 0.0394 E-score.

Turning to AAGTAAAT, the binding signal is -0.0628 E-score.

As to ATGATGGC, the binding signal was -0.126 E-score.

Consider ACTACGTG, for which the binding signal is -0.0731 E-score.

For the sequence CAAGCTAG, the binding signal is -0.0839 E-score.

Take CGACCGAG: the binding signal is -0.117 E-score.

On to GACTCGGA, for which the binding signal is 0.0606 E-score.

Turning to CGGCATGA, the binding signal amounted to 0.139 E-score.

In the case of AGTCGACG, the binding signal came out at 0.0544 E-score.

Take GCTCCGCC: the binding signal was -0.109 E-score.

ACGTTCTG: the binding signal was -0.178 E-score.

In the case of ACGGGCTA, the binding signal is 0.0249 E-score.

As for CCGTTGTC, the binding signal was -0.159 E-score.

Take ACTCGGGA: the binding signal was determined as 0.0672 E-score.

Turning to AAGCGGTC, the binding signal was -0.148 E-score.

Turning to AGACCCTG, the binding signal was 0.0178 E-score.

ACTCACGA: the binding signal came out at 0.0685 E-score.

On to CATGTAAC, for which the binding signal is -0.146 E-score.

As to AATTCAAA, the binding signal was -0.191 E-score.

CACTTGGC: the binding signal is -0.122 E-score.

On to CGTCGTCA, for which the binding signal is -0.0824 E-score.

For the sequence CTTGACTC, the binding signal is -0.279 E-score.

On to GCCTGTCA, for which the binding signal is -0.0937 E-score.

Take AGCTACCC: the binding signal came to 0.00907 E-score.

Consider AAAACCCA, for which the binding signal came out at 0.0053 E-score.

As for CAACTAAC, the binding signal is -0.13 E-score.

Consider ACATTTCT, for which the binding signal is -0.101 E-score.

For the sequence GAATGATC, the binding signal stood at 0.306 E-score.

For the sequence GACGCCAA, the binding signal is -0.165 E-score.

On to ATAGGTCG, for which the binding signal came out at 0.0987 E-score.

Consider GGTGTAGA, for which the binding signal came out at 0.317 E-score.

GGAGCATA: the binding signal was determined as 0.213 E-score.

Take ACTGCTTC: the binding signal is -0.266 E-score.

Consider CCCAAAGG, for which the binding signal was -0.0824 E-score.

Consider ATTAGTTG, for which the binding signal came to 0.09 E-score.

On to AGCACACG, for which the binding signal is -0.254 E-score.

For AGAGGGAG, the binding signal is -0.128 E-score.

Consider AGCCGTAC, for which the binding signal was -0.00524 E-score.

Regarding CTAATCAC, the binding signal was 0.106 E-score.

Turning to TCCATCAA, the binding signal turned out to be 0.168 E-score.

As to ACCCTTTC, the binding signal is -0.0808 E-score.

In the case of GTTTGCCA, the binding signal is -0.237 E-score.

Consider AACGTGTG, for which the binding signal was -0.23 E-score.

With CTCTTTGA, the binding signal is -0.199 E-score.

As to AAATTTGC, the binding signal is -0.286 E-score.

With AGGCCGAC, the binding signal was -0.258 E-score.

With CTTGTGGA, the binding signal is -0.0761 E-score.

Consider AAGGGCGG, for which the binding signal is -0.185 E-score.

With AGACAACC, the binding signal is -0.0652 E-score.

With CGAAAAGC, the binding signal is -0.261 E-score.

Consider CATATAGA, for which the binding signal came to 0.183 E-score.

As for AAGCTATT, the binding signal was -0.0788 E-score.

As for CGCCGATC, the binding signal was 0.258 E-score.

Consider CGGCGCGA, for which the binding signal came to 0.124 E-score.

Take GAAGTGTC: the binding signal was found to be 0.083 E-score.

ACGAATAG: the binding signal is -0.11 E-score.

Consider ATTGGATA, for which the binding signal was found to be 0.297 E-score.

Regarding AGACAGAC, the binding signal was -0.0699 E-score.

AGCCATTA: the binding signal came out at 0.0688 E-score.

Take ACAACGTC: the binding signal is -0.328 E-score.

In the case of AGTAGATC, the binding signal stood at 0.321 E-score.

On to CCCATAAC, for which the binding signal was -0.0014 E-score.

Consider CGACGTCC, for which the binding signal was -0.212 E-score.

GAATCGGC: the binding signal was -0.0808 E-score.

For the sequence CGCTTAGA, the binding signal is -0.0774 E-score.

As to AAGGCCAA, the binding signal is -0.213 E-score.

For ATCAAAGC, the binding signal is 0.214 E-score.

Regarding CTGAGGAA, the binding signal is -0.177 E-score.

Regarding ATTGCGTG, the binding signal was -0.00942 E-score.

Turning to AACCACTA, the binding signal was -0.155 E-score.

Consider AGAGTCAA, for which the binding signal is -0.234 E-score.

Take AAGGGTCA: the binding signal was -0.0563 E-score.

Regarding AAGCCCTC, the binding signal is -0.182 E-score.

With GGCTGCCA, the binding signal is -0.28 E-score.

Turning to GCACAGAA, the binding signal was -0.219 E-score.

On to CTCCACGA, for which the binding signal is -0.133 E-score.

Take AGATGGAT: the binding signal is 0.328 E-score.

Take GTGCCTTA: the binding signal was -0.24 E-score.
